# Screen size: about 39,000 compounds; about 220 (0.56%) showed activity. Some of the results follow.
# Test system: Escherichia coli K-12 BW25113
# Test: relative growth (OD600 normalised to plate interquartile mean) (fraction); higher = less growth inhibition, active = 0.2 or less
# Conditions: 50 µM; LB; incubation time: overnight (16-24 h)
# 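Further: static incubation at 37 °C against the wild-type strain, values averaged over two biological replicates.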
row,SMILES,relative growth
1,CC(C)NC(=O)N(C)C[C@H]1Oc2c(NS(=O)(=O)c3cccs3)cccc2C(=O)N([C@@H](C)CO)C[C@@H]1C,inactive: 0.986
2,O=C(C1=C[C@@H](c2ccc3c(c2)OCO3)C[C@@H](OCCCCO)O1)N1CCN(Cc2ccc3c(c2)OCO3)CC1,inactive: 1.02
3,CC(C)CC#Cc1cnc2c(c1)C(=O)N([C@@H](C)CO)C[C@H](C)[C@@H](CN(C)C(=O)CCN1CCCCC1)O2,inactive: 0.989
4,O=C1C=CC(=O)N1,active: 0.0291
5,Cc1ccc(S(=O)(=O)Nc2ccc3c(c2)C(=O)N([C@@H](C)CO)C[C@H](C)[C@H](CN(C)Cc2ccccc2)OCCCC[C@@H](C)O3)cc1,inactive: 0.99
6,COc1ccc(CN(C)C[C@@H]2OCCCC[C@H](C)Oc3ccc(NC(=O)c4ccncc4)cc3C(=O)N([C@@H](C)CO)C[C@H]2C)cc1,inactive: 1.04
7,COc1cccc(NC(=O)N2C[C@@H](O)COC[C@@H]3O[C@H](CC(=O)NC4Cc5ccccc5C4)CC[C@H]32)c1,inactive: 1
8,C=C/C=C/C[C@@H](C)[C@@H](O)[C@H]1C(=O)N[C@@H](CC)C(=O)N(C)CC(=O)N(C)[C@@H](CC(C)C)C(=O)N[C@@H](C(C)C)C(=O)N(C)[C@@H](CC(C)C)C(=O)N[C@@H](C)C(=O)N[C@H](C)C(=O)N(C)[C@@H](CC(C)C)C(=O)N(C)[C@@H](CC(C)C)C(=O)N(C)[C@@H](C(C)C)C(=O)N1C,inactive: 1.02
9,C[C@@H]1CN([C@@H](C)CO)C(=O)Cc2cc(NC(=O)Cn3cnnn3)ccc2O[C@H]1CN(C)S(=O)(=O)c1ccc(Cl)cc1,inactive: 1.03
10,C[C@@H]1CN([C@@H](C)CO)C(=O)c2cc(NC(=O)Cc3ccccc3)ccc2O[C@@H](C)CCCCO[C@@H]1CN(C)S(=O)(=O)c1ccc(Cl)cc1,inactive: 1.04
11,Cc1sc(N)nc1-c1ccccc1,inactive: 0.978
12,O=C1CCC(=O)N1c1nccs1,inactive: 1.03
13,CN1CCN(C(=O)C[C@H]2CC[C@@H]3[C@@H](COc4ccc(NC(=O)C5CCOCC5)cc4C(=O)N3C)O2)CC1,inactive: 1.02
14,CC(C)NC(=O)Nc1ccc2c(c1)C(=O)N([C@@H](C)CO)C[C@@H](C)[C@@H](CN(C)Cc1ccc(-c3ccccc3)cc1)O2,inactive: 0.994
15,C[C@@H]1CN([C@H](C)CO)C(=O)c2cc(NC(=O)C3CCOCC3)ccc2O[C@H]1CN(C)S(=O)(=O)c1ccc(Cl)cc1,inactive: 1.01
16,COc1ccc(C#Cc2ccc3c(c2)O[C@@H](CN(C)C(C)=O)[C@@H](C)CN([C@@H](C)CO)S3(=O)=O)cc1,inactive: 1.03
17,CNC[C@H]1Oc2ccc(NC(=O)CCN3CCOCC3)cc2CC(=O)N([C@@H](C)CO)C[C@@H]1C,inactive: 0.977
18,Cc1ccc(NC(=O)Cn2ccn(CCc3ccc(S(N)(=O)=O)cc3)c(=O)c2=O)cc1F,inactive: 0.98
19,C[C@H]1CCCCO[C@H](CN(C)C(=O)Nc2cccc3ccccc23)[C@@H](C)CN([C@@H](C)CO)C(=O)c2cc(NS(C)(=O)=O)ccc2O1,inactive: 0.972
20,CCCCNC(=O)N1C[C@@H]2[C@H](CN)[C@@H]2C1,inactive: 0.989
21,C[C@@H]1CN([C@@H](C)CO)C(=O)c2cc(NC(=O)C3CCCCC3)ccc2O[C@@H](C)CCCCO[C@H]1CN(C)Cc1ccc(Cl)c(Cl)c1,inactive: 1.01

row,SMILES,relative growth
1,Cc1noc(C)c1NC(=O)Nc1ccc2c(c1)C(=O)N([C@@H](C)CO)C[C@@H](C)[C@@H](CN(C)Cc1ccc(Oc3ccccc3)cc1)O2,inactive: 0.98
2,CC(=O)Oc1cc(OC(C)=O)c2c(c1)O[C@H](c1ccc(OC(C)=O)c(OC(C)=O)c1)[C@H](OC(C)=O)C2,inactive: 1.01
3,CS(=O)(=O)N1CCc2ccc(N)cc2C1,inactive: 0.947
4,C[C@H](CO)N1C[C@H](C)[C@H](CN(C)C(=O)Nc2cccc3ccccc23)OCCCC[C@H](C)Oc2ccc(NC(=O)Nc3ccccc3)cc2C1=O,inactive: 0.999
5,Cc1noc(C)c1NC(=O)N(C)C[C@H]1Oc2ccc(NC(=O)CCCN(C)C)cc2C(=O)N([C@@H](C)CO)C[C@H]1C,inactive: 1.02
6,S=c1ccss1,inactive: 0.99
7,Cc1cn[nH]c1.Cl,inactive: 1.01
8,CC(C)NC(=O)N(C)C[C@H]1Oc2ccc(NC(=O)CCC(F)(F)F)cc2C(=O)N([C@@H](C)CO)C[C@@H]1C,inactive: 1.01
9,COc1ccc(CN(C)C[C@@H]2OCCCC[C@H](C)Oc3ccc(NS(=O)(=O)c4c(C)noc4C)cc3C(=O)N([C@@H](C)CO)C[C@H]2C)cc1,inactive: 0.987
10,CCS(=O)(=O)Nc1ccc2c(c1)C(=O)N(C)[C@@H]1CC[C@@H](CC(=O)N[C@@H]3CCN(Cc4ccccc4)C3)O[C@H]1CO2,inactive: 1
11,C[C@@H]1CN([C@H](C)CO)C(=O)c2cccc(NS(=O)(=O)c3cn(C)cn3)c2O[C@H]1CN(C)S(=O)(=O)c1cccs1,inactive: 0.983
12,Cn1cc(C(=O)O)cn1,inactive: 1.02
13,Cc1noc(C)c1S(=O)(=O)N(C)C[C@@H]1OCCCC[C@@H](C)Oc2ccc(NS(C)(=O)=O)cc2C(=O)N([C@H](C)CO)C[C@@H]1C,inactive: 0.991
14,CCC(=O)N(C)C[C@H]1Oc2ncc(C#C[C@H](C)O)cc2C(=O)N([C@H](C)CO)C[C@@H]1C,inactive: 0.983
15,O=S1(=O)CCN(CCc2ccccc2)CC1,inactive: 0.954
16,Cc1cc(C(=O)N2[C@@H]3CC[C@@H](C3)[C@H]2c2nc3cccc(OCc4ccc(F)cc4)c3[nH]2)n(C(C)(C)C)n1,inactive: 1.03
17,C[C@@H]1CN([C@@H](C)CO)C(=O)Cc2cc(NS(C)(=O)=O)ccc2O[C@H]1CN(C)S(=O)(=O)c1ccccc1,inactive: 0.997
18,C[C@H](CO)N1C[C@H](C)[C@@H](CN(C)C(=O)NC2CCCC2)Oc2cc(Br)ccc2S1(=O)=O,inactive: 1.01
19,C[C@@H]1CCCCO[C@H](CN(C)C)[C@@H](C)CN([C@H](C)CO)C(=O)c2cc(NC(=O)CCCN(C)C)ccc2O1,inactive: 1
20,CC(C)(C)OC(=O)NCc1nnc(N)[nH]1,inactive: 1.04
21,C[C@@H]1CCCCO[C@H](CN(C)Cc2ccc(C(F)(F)F)cc2)[C@@H](C)CN([C@H](C)CO)C(=O)c2cc(NS(=O)(=O)c3cccs3)ccc2O1,inactive: 1.03

row,SMILES,relative growth
1,COc1ccc(S(=O)(=O)N(C)C[C@H]2Oc3ccc(NS(=O)(=O)c4ccccc4)cc3CC(=O)N([C@@H](C)CO)C[C@@H]2C)cc1,inactive: 1.01
2,COc1ccc2c(c1OCc1ccccc1)C[C@@H](C(=O)O)N(C(=O)C(c1ccccc1)c1ccccc1)C2,inactive: 1.02
3,COc1cccc(-c2cc(=O)c3cc(OC)ccc3o2)c1,inactive: 0.878
4,NCc1cccc(-c2nccs2)c1,inactive: 0.994
5,COCC#Cc1ccc2c(c1)O[C@@H](CN(C)C(=O)c1ccccc1)[C@@H](C)CN([C@H](C)CO)S2(=O)=O,inactive: 1.01
6,CCOC(=O)N1c2ccc(C(F)(F)F)cc2[C@@H](N(Cc2cc(C(F)(F)F)cc(C(F)(F)F)c2)C(=O)OC)C[C@H]1CC,inactive: 1.01
7,C[C@@H]1CN([C@@H](C)CO)S(=O)(=O)c2ccc(C#CC3(O)CCCC3)cc2O[C@H]1CN(C)C(=O)Nc1ccc(F)cc1,inactive: 1
8,CO[C@H]1CN(C)C(=O)c2ccc(NC(=O)NC(C)C)cc2OC[C@@H](C)N(Cc2ccc(-c3ccccn3)cc2)C[C@H]1C,inactive: 0.994
9,CO[C@@H]1[C@@H](O[C@@H]2O[C@H](C)[C@@H](O[C@H]3C[C@@](C)(O)[C@@H](O)[C@H](C)O3)[C@H](N(C)C)[C@H]2O)[C@@H](CC=O)C[C@@H](C)[C@@H](O[C@H]2CC[C@H](N(C)C)[C@@H](C)O2)/C=C/C=C/CC(C)OC(=O)C[C@H]1OC(C)=O (stereo partly specified),inactive: 0.972
10,CC(C)CC#Cc1cnc2c(c1)C(=O)N([C@H](C)CO)C[C@@H](C)[C@@H](CN(C)C(=O)c1ccc3c(c1)OCO3)O2,inactive: 0.986
11,CO[C@H](CN(C)S(=O)(=O)c1cn(C)cn1)[C@H](C)CN(C(=O)Nc1ccc(C(F)(F)F)cc1)[C@H](C)CO,inactive: 0.877
12,C=CCOC(=O)[C@H]1[C@@H]2C(=O)O[C@@H](c3ccccc3)[C@@H](c3ccccc3)N2[C@@H](c2ccc(OCCOC(=O)[C@H]3C[C@H]4C(=O)N[C@@H](CCCC[N+](C)(C)C)C(=O)N4[C@H]3c3cccc(OCCO)c3)cc2)[C@]12C(=O)Nc1ccccc12,inactive: 1.01
13,CCC1OC(=O)C(C)C(OC2CC(C)(OC)C(O)C(C)O2)C(C)C(OC2OC(C)CC(N(C)C)C2O)C(C)(O)CC(C)CN(C)C(C)C(O)C1(C)O (stereo unspecified),active: 0.0435
14,CCNC(=O)C[C@@H]1CC[C@@H](NC(=O)C2CC2)[C@@H](CO)O1,inactive: 0.969
15,C[C@@H]1CN([C@@H](C)CO)S(=O)(=O)c2ccc(C#Cc3ccccc3)cc2O[C@@H]1CN(C)S(=O)(=O)c1ccccc1F,inactive: 1
16,C[C@H]1CN([C@@H](C)CO)C(=O)c2cc(NC(=O)Cc3ccccc3)ccc2O[C@@H]1CN(C)Cc1ccc(Oc2ccccc2)cc1,inactive: 0.998
17,Nc1ccccc1S(N)(=O)=O,inactive: 1.01
18,Cc1noc(C)c1NC(=O)N(C)C[C@H]1Oc2c(NC(=O)c3cnccn3)cccc2C(=O)N([C@H](C)CO)C[C@H]1C,inactive: 0.98
19,COc1ccc(NC(=O)Nc2ccc3c(c2)C(=O)N([C@H](C)CO)C[C@H](C)[C@H](CN(C)S(=O)(=O)c2ccc(F)cc2)OCCCC[C@H](C)O3)cc1,inactive: 0.996
